According to the supplement of paper PMC9433436:
± gives the standard deviation of the averaged measurements. In all, about 4,100 sequences were measured (“relative kcat/Km (krel) vs genomic leader AAAGAU”: median about 1.7, highest 2% from about 6.5 on). The entries are a selection whose mix differs from that of the whole data set.

Target: T1, E. coli RNase P holoenzyme (M1 P RNA + rnpA protein) (UniProt P0A7Y8)
T1 sequence: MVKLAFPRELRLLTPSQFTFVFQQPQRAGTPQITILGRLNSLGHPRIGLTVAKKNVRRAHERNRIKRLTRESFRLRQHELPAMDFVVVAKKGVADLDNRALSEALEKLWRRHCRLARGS
Assay: relative kcat/Km (krel) vs genomic leader AAAGAU (relative (reference leader = 1)); higher = faster RNase P cleavage
Method: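 HTS-Kin: a pool of ptRNA-Met (21C construct) with all 4096 combinations of 5' leader nucleotides N(-6) to N(-1) was processed in vitro by E. coli RNase P (P RNA + rnpA/C5 protein) under multiple-turnover conditions at 37 C, pH 8, 17.5 mM MgCl2. Residual substrate was Illumina-sequenced at several fractions reacted, and relative kcat/Km (krel) was computed by internal competition kinetics, calibrated to the genomic leader (AAAGAU = 1). The listed hexamer is the varied N(-6)..N(-1) leader (DNA letters), and it sits between a fixed 5' stem-loop flank (GCAUGCACGAAAGUGCGUGCUAUGAA) and the mature tRNA-Met starting GGCUACGUAGCUCAGUUGG. Two technical replicates are averaged.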

[1] = fraction of substrate reacted: ~9-10% (9.79% repeat 1, 9.1% repeat 2)
[2] = fraction of substrate reacted: ~13-16% (15.68% repeat 1, 13.17% repeat 2)
[3] = fraction of substrate reacted: ~26-29% (28.66% repeat 1, 26.4% repeat 2)

Sequence	relative kcat/Km [1]	relative kcat/Km [2]	relative kcat/Km [3]
GTATTT	3.06 ± 2	3.71 ± 0.4	5.37 ± 1.9
ATGAGG			0.439 ± 0.23
GACCGG			0.689 ± 0.39
TAAGCC	2.57 ± 0.66	2.16 ± 0.87	1.67 ± 0.62
TACAAT	2.84 ± 0.75	4.74 ± 0.94	7.14 ± 3.4
AAAGCT	1.03 ± 0.26	0.52 ± 0.21	0.689 ± 0.075
GGGTTT		0.999 ± 0.63	1.28 ± 1.2
ACTTGC	2.61 ± 0.94	3.14 ± 0.38	4.33 ± 1.3
ACGTTC	2.18 ± 0.36	2.45 ± 0.76	3.59 ± 1.4
TGATGC	2.32 ± 0.093	3.4 ± 0.52	4.58 ± 1.8
TCATAT	4.21 ± 1.4	5.49 ± 1	8.18 ± 3.4
CATGGT			1.66 ± 1.1
TCAGGC	1.52 ± 0.94		
TCAGAG	1.26 ± 0.99	0.934 ± 0.39	1.86 ± 0.028
GGCACA	1.43 ± 0.55	1.26 ± 0.95	2.08 ± 0.64
CAGCCA	0.956 ± 0.31	0.833 ± 0.06	1.84 ± 0.13
TCGAGA	1.37 ± 0.46	2.27 ± 1.3	3.57 ± 1.3
TACTGC	3.83 ± 1.5	4.1 ± 0.86	5.96 ± 1.5
TACTTT	3.77 ± 1.4	4.69 ± 0.54	
GATGAA	1.41 ± 0.62	1.12 ± 1	2.65 ± 0.29
CAGCTA	1.51 ± 0.56	1.21 ± 0.27	1.85 ± 0.51
CACTTG		0.924 ± 0.61	2.34 ± 0.15

Sequence	relative kcat/Km [1]	relative kcat/Km [2]	relative kcat/Km [3]
CCGTCA	1.74 ± 0.082	2.11 ± 0.3	2.46 ± 0.8
TTGCCG			0.519 ± 0.071
TGAAAG		1.15 ± 0.57	2.65 ± 0.8
CTTCCT	2.3 ± 0.41	2.56 ± 0.74	2.87 ± 1.1
ATAATG			1.34 ± 0.22
CGGCCT	0.9 ± 0.34		0.69 ± 0.39
GAAACT	0.428 ± 0.12	1.21 ± 0.23	1.44 ± 0.24
CCATGT	1.03 ± 0.21	1.23 ± 0.52	1.17 ± 0.29
TCGACA	1.25 ± 0.27	1.39 ± 0.21	1.62 ± 0.039
ATTAAA	2.47 ± 0.74	3.1 ± 0.085	4.44 ± 1.6
GGTATG		0.21 ± 0.0069	1.63 ± 0.33
TTCAAT	4.1 ± 1.6	5.53 ± 0.71	
CGTCTC	3.46 ± 1.4	3.17 ± 0.15	4.08 ± 1.2
CCCGCC	2.78 ± 0.39	4.24 ± 2	4.94 ± 1.9
GATAGA	2.54 ± 0.52	3.28 ± 1.1	4.68 ± 2.2
TCCCGG	1.09 ± 0.43	0.823 ± 0.2	1.31 ± 0.12
CCGGCA		0.373 ± 0.043	
CGTTTC	2.71 ± 0.41	3.42 ± 0.7	4.39 ± 1.7
CACCGT			1.45 ± 0.87
CCCTAC	4.32 ± 1.6	5.08 ± 2.3	7.32 ± 3.6
ATATTT	2.52 ± 0.84	3.27 ± 0.55	4.42 ± 1.7
TTGAAA	1.85 ± 0.91	2.75 ± 0.27	4.27 ± 1.5

Sequence	relative kcat/Km [1]	relative kcat/Km [2]	relative kcat/Km [3]
TGTAAG	1.42 ± 0.7	1.55 ± 0.3	3.25 ± 1
ATACCG	1.17 ± 0.45	0.388 ± 0.054	0.985 ± 0.26
CCAGCC	2.19 ± 0.25	1.21 ± 0.83	1.98 ± 0.67
AGGCCC		0.946 ± 0.56	0.674 ± 0.24
GTCCCG	1.8 ± 0.86	1.62 ± 0.64	3.16 ± 1.1
ACTGCT	1.54 ± 0.5	1.16 ± 0.11	0.708 ± 0.3
CGATTC	2.31 ± 0.59	2.7 ± 0.093	3.23 ± 0.51
GAATTT	2.52 ± 0.75	2.52 ± 0.61	3.89 ± 1.9
AAGGTC			1.41 ± 1.2
GTTCGA	2.34 ± 0.56	3.28 ± 0.97	5.18 ± 2.2
TACCAT	3.78 ± 1.5	5.08 ± 1.6	
AATGGG	0.672 ± 0.43		
AACAGC	2.64 ± 0.14	4 ± 0.94	4.83 ± 1.9
TGCGTA	1.11 ± 0.33	1.31 ± 0.36	1.34 ± 0.86
CAGCCG			0.58 ± 0.46
TATTGA	3.87 ± 0.33	4.42 ± 1.1	6.93 ± 3.1
CCGGTT		1.23 ± 0.56	0.722 ± 0.15
GCCGGA	0.199 ± 0.19		0.499 ± 0.11
CTGTGA	1.54 ± 0.4	1.69 ± 0.021	2.49 ± 0.65
CCACAT	1.66 ± 0.71	2.28 ± 0.88	3.62 ± 1.1
ACCGAT	1.71 ± 0.53	1.62 ± 0.77	2.16 ± 0.95
CTACAT	3.38 ± 1.2	3.92 ± 0.91	5.19 ± 2

Sequence	relative kcat/Km [1]	relative kcat/Km [2]	relative kcat/Km [3]
ATAGAC	2.35 ± 0.59	3.04 ± 0.16	3.83 ± 1.4
GTGACC	1.12 ± 0.28	1.17 ± 0.58	1.6 ± 0.33
CTATAG	2.47 ± 1.2	1.823 ± 0.012	3.4 ± 0.44
CTTACT	1.64 ± 0.29	1.54 ± 0.47	2.71 ± 0.57
ATTGAT	0.788 ± 0.097	0.733 ± 0.17	1.01 ± 0.033
TTTCCT	2.84 ± 0.75	2.73 ± 0.23	3.67 ± 1.3
ACCACC	2.49 ± 0.91	1.27 ± 0.33	3.18 ± 0.88
CGCCCC	2.78 ± 1.1	2.38 ± 0.093	3.47 ± 1
TAAATC	1.49 ± 1	1.45 ± 0.52	2.15 ± 0.9
CCAAAC	2.63 ± 1.5	1.63 ± 0.81	2.42 ± 0.85
TAGTTA	2.3 ± 1.2	2.7 ± 0.067	3.74 ± 1.3
TTGCAA	1.54 ± 0.37	2.13 ± 0.72	2.92 ± 0.97
GCGGTA	1.66 ± 1.3		1.51 ± 1
AACGCG	1.32 ± 0.5	0.857 ± 0.52	1.47 ± 0.078
CTTATC	2.17 ± 0.3	2.23 ± 0.22	3.15 ± 1.2
ATAACT	1.28 ± 0.37	1.21 ± 0.2	1.79 ± 0.75
GCCAGG	0.252 ± 0.12		1.05 ± 0.036
TAATAA	3.59 ± 2	4.41 ± 0.57	5.5 ± 2.2
ACGACG	1.28 ± 0.76		1.41 ± 0.34
TTATTT	2.98 ± 1.5	3.82 ± 0.087	5.29 ± 2.3
CAGGGT			1.38 ± 0.19
GGTAAA	1.91 ± 1.8	1.55 ± 0.29	2.14 ± 0.88

Sequence	relative kcat/Km [1]	relative kcat/Km [2]	relative kcat/Km [3]
GAAGAC	2.98 ± 1.4	2.1 ± 0.083	3.1 ± 0.58
CGCCGA	2.62 ± 0.76	3.85 ± 0.96	5.55 ± 2
AGTTAT	2.78 ± 0.19	4.36 ± 0.82	7 ± 3.2
TATCCT	2.16 ± 0.37	2.81 ± 0.74	3.59 ± 1.8
TTTTTT	3.31 ± 1.9	3.41 ± 0.27	4.9 ± 1.7
GAGAGG			0.557 ± 0.14
CTTATT	2.42 ± 1	2.76 ± 0.34	3.73 ± 1.6
AAACCT	1.79 ± 1.5	1.27 ± 0.11	1.63 ± 0.63
AGTGCT	0.993 ± 0.46	0.79 ± 0.14	0.89 ± 0.51
TATTCA	2.58 ± 0.84	2.98 ± 0.13	3.81 ± 1.7
CACCTC	2.99 ± 1.4	2.94 ± 0.042	3.82 ± 1.3
CAGCGG	0.407 ± 0.34		
CGACAG			2.08 ± 1.1
AGATTT	3.33 ± 0.85	3.6 ± 0.94	4.68 ± 1.8
ACACGC	2.18 ± 0.42	2.65 ± 0.23	3.32 ± 1
AGTAGA	2.63 ± 0.91	3.4 ± 0.4	5.63 ± 1.9
TCATGC	1.56 ± 1.4	2.93 ± 1.1	4.85 ± 2.6
ATTCTT	2.59 ± 1.3	2.73 ± 0.18	3.43 ± 1.3
ACCGAA	3.81 ± 1.6	4.31 ± 1	6.81 ± 3
ATGGAA	0.941 ± 0.85	0.606 ± 0.34	0.998 ± 0.66
ACTTCA	1.02 ± 0.33	1.482 ± 0.014	1.97 ± 0.69
TGAAGC	2.1 ± 1.1	2.64 ± 0.89	2.86 ± 0.053

Sequence	relative kcat/Km [1]	relative kcat/Km [2]	relative kcat/Km [3]
CTTTGT	1.23 ± 0.47	1.83 ± 0.55	1.9 ± 1.5
GGGAGA	0.529 ± 0.31	0.919 ± 0.067	1.46 ± 0.63
TATTCT	3.27 ± 1.2	4.15 ± 0.4	5.78 ± 2.3
GATCAG		0.322 ± 0.049	2.31 ± 0.34
GTGATC	2.02 ± 0.21	1.56 ± 0.56	1.58 ± 0.39
ACAAAC	1.92 ± 1.6	1.88 ± 1.1	2.42 ± 0.36
GGGTCG			0.592 ± 0.082
GCTAAC	1.25 ± 0.023	1.09 ± 0.85	2.1 ± 0.56
GTCGCT	2.09 ± 1.2	2.03 ± 0.41	3.35 ± 1
ATGAAT	1.23 ± 0.64	2.19 ± 0.089	3.11 ± 1
AGGCTT			0.621 ± 0.098
TGTGAT	1.42 ± 0.34	0.736 ± 0.6	1 ± 0.32
GAAGGG			1 ± 0.96
GCCGTC	1.28 ± 0.43	1.56 ± 0.46	2.72 ± 0.89
GGATCG		0.717 ± 0.7	1.11 ± 0.57
AAAAGT	1.32 ± 1.1		
GTATCG			2.18 ± 0.42
TATCAA	2.7 ± 0.57	3.55 ± 0.23	5.47 ± 2.8
TGCCAT	2.8 ± 0.93	2.89 ± 0.61	4.45 ± 1.8
TCTGTA	1.94 ± 1.6	1.58 ± 0.73	2.08 ± 0.3
ACGCGG	0.737 ± 0.44	0.406 ± 0.35	0.601 ± 0.031
CTGGAA	0.795 ± 0.032		0.509 ± 0.11
